Results on 32 sequences are retold here after article PMC12820563, “FoxP3 forms a head-to-head dimer in vivo and stabilizes its multimerization on adjacent microsatellites”.

The list shows a part of the results.

This test has as its target T1, MBP-FoxP1dN (Mus musculus, UniProt P58462 326-579).
T1 sequence: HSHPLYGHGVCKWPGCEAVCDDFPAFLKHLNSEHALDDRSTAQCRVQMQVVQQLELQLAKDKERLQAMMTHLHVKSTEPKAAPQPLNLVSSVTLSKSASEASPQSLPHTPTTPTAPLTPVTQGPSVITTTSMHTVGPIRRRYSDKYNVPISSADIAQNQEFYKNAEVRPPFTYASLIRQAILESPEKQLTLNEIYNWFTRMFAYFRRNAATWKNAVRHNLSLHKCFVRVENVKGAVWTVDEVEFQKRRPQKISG
Kind of test: PD-seq (MBP pull-down with sequencing); 20 mM Tris-HCl pH 7.5, 100 mM NaCl, 1.5 mM MgCl2, 0.4 uM protein, 0.1 uM dsDNA library, 30 min, room temperature, amylose pull-down; high values mean tight binding. The settings on record: protein: recombinant; tags: His6-MBP; chain copies: 2; dsDNA, one strand shown. The method in brief:
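A degenerate double-stranded DNA library, filled in with Klenow, was added at 0.1 µM to 0.4 µM His6-MBP-tagged mouse FoxP3 or FoxP1 fragment lacking the N-terminus, expressed in E. coli. Incubation lasted 30 min at room temperature in Tris pH 7.5 buffer with NaCl and MgCl2, after which complexes were collected on amylose resin, washed three times, digested with proteinase K to free the DNA, barcoded by PCR and sequenced by Illumina. Binding is the pooled-replicate reads-per-million enrichment of pull-down over input.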
As for “GATGATTGTTCTCCCAGCTGATGAATTTTAATTATCGAGTAAACAAATTTTCCTAATCTTTCTGTTCAAGCGCCATCTAC”, the binding signal is 1.47 RPM ratio (pull-down/input).
The value for “GATGATTGTTCTCCCAGCTGATGAATTCCTCGATTCGAGTAAACAAATTTTCCTAATCTTTCTGTTCAAGCGCCATCTAC” was 0.848 RPM ratio (pull-down/input); that for “GATGATTGTTCTCCCAGCTGATGAATTAATCCCGTCGAGTAAACAAATTTTCCTAATCTTTCTGTTCAAGCGCCATCTAC” was 0.837 RPM ratio (pull-down/input).
On to “GATGATTGTTCTCCCAGCTGATGAATTTTAATAGTCGAGTAAACAAATTTTCCTAATCTTTCTGTTCAAGCGCCATCTAC”, for which the binding signal is 0.968 RPM ratio (pull-down/input).
With “GATGATTGTTCTCCCAGCTGATGAATTACAGAATTCGAGTAAACAAATTTTCCTAATCTTTCTGTTCAAGCGCCATCTAC”, the binding signal was 1.22 RPM ratio (pull-down/input).
As for “GATGATTGTTCTCCCAGCTGATGAATTTCCCACATCGAGTAAACAAATTTTCCTAATCTTTCTGTTCAAGCGCCATCTAC”, the binding signal is 1.05 RPM ratio (pull-down/input).
Regarding “GATGATTGTTCTCCCAGCTGATGAATTGTGCGTATCGAGTAAACAAATTTTCCTAATCTTTCTGTTCAAGCGCCATCTAC”, the binding signal is 1.22 RPM ratio (pull-down/input).
In the case of “GATGATTGTTCTCCCAGCTGATGAATTAAAGCCGTCGAGTAAACAAATTTTCCTAATCTTTCTGTTCAAGCGCCATCTAC” it was 0.934 RPM ratio (pull-down/input); in that of “GATGATTGTTCTCCCAGCTGATGAATTAGTCGGTTCGAGTAAACAAATTTTCCTAATCTTTCTGTTCAAGCGCCATCTAC”, 0.902 RPM ratio (pull-down/input).
In the case of “GATGATTGTTCTCCCAGCTGATGAATTGCGTGGATCGAGTAAACAAATTTTCCTAATCTTTCTGTTCAAGCGCCATCTAC” it was 0.968 RPM ratio (pull-down/input).
In the case of “GATGATTGTTCTCCCAGCTGATGAATTCAGCTGATCGAGTAAACAAATTTTCCTAATCTTTCTGTTCAAGCGCCATCTAC”, the binding signal is 0.862 RPM ratio (pull-down/input).
On to “GATGATTGTTCTCCCAGCTGATGAATTGGCCGTCTCGAGTAAACAAATTTTCCTAATCTTTCTGTTCAAGCGCCATCTAC”, for which the binding signal was 0.741 RPM ratio (pull-down/input).
As to “GATGATTGTTCTCCCAGCTGATGAATTATCTTCATCGAGTAAACAAATTTTCCTAATCTTTCTGTTCAAGCGCCATCTAC”, the binding signal is 1.09 RPM ratio (pull-down/input).
With “GATGATTGTTCTCCCAGCTGATGAATTGCAATGATCGAGTAAACAAATTTTCCTAATCTTTCTGTTCAAGCGCCATCTAC”, the binding signal is 1.2 RPM ratio (pull-down/input).
For “GATGATTGTTCTCCCAGCTGATGAATTGTGGGATTCGAGTAAACAAATTTTCCTAATCTTTCTGTTCAAGCGCCATCTAC”, the binding signal was 0.936 RPM ratio (pull-down/input).
For the sequence “GATGATTGTTCTCCCAGCTGATGAATTTTCTTGCTCGAGTAAACAAATTTTCCTAATCTTTCTGTTCAAGCGCCATCTAC”, the binding signal is 0.932 RPM ratio (pull-down/input).
In the case of “GATGATTGTTCTCCCAGCTGATGAATTAACTGAGTCGAGTAAACAAATTTTCCTAATCTTTCTGTTCAAGCGCCATCTAC”, the binding signal is 0.877 RPM ratio (pull-down/input).
The value for “GATGATTGTTCTCCCAGCTGATGAATTAACGGCATCGAGTAAACAAATTTTCCTAATCTTTCTGTTCAAGCGCCATCTAC” was 1.05 RPM ratio (pull-down/input); that for “GATGATTGTTCTCCCAGCTGATGAATTTCTGGAGTCGAGTAAACAAATTTTCCTAATCTTTCTGTTCAAGCGCCATCTAC” was 0.846 RPM ratio (pull-down/input); that for “GATGATTGTTCTCCCAGCTGATGAATTACGTTTGTCGAGTAAACAAATTTTCCTAATCTTTCTGTTCAAGCGCCATCTAC” was 1.19 RPM ratio (pull-down/input).
Take “GATGATTGTTCTCCCAGCTGATGAATTTATATCTTCGAGTAAACAAATTTTCCTAATCTTTCTGTTCAAGCGCCATCTAC”: the binding signal was 1.12 RPM ratio (pull-down/input).
In the case of “GATGATTGTTCTCCCAGCTGATGAATTTCTCGGATCGAGTAAACAAATTTTCCTAATCTTTCTGTTCAAGCGCCATCTAC”, the binding signal is 0.846 RPM ratio (pull-down/input).
Take “GATGATTGTTCTCCCAGCTGATGAATTTAATTGCTCGAGTAAACAAATTTTCCTAATCTTTCTGTTCAAGCGCCATCTAC”: the binding signal is 1.22 RPM ratio (pull-down/input).
With “GATGATTGTTCTCCCAGCTGATGAATTACTCTCTTCGAGTAAACAAATTTTCCTAATCTTTCTGTTCAAGCGCCATCTAC”, the binding signal is 1.02 RPM ratio (pull-down/input).
The value for “GATGATTGTTCTCCCAGCTGATGAATTCGACTTGTCGAGTAAACAAATTTTCCTAATCTTTCTGTTCAAGCGCCATCTAC” was 0.829 RPM ratio (pull-down/input); that for “GATGATTGTTCTCCCAGCTGATGAATTGCTCGCCTCGAGTAAACAAATTTTCCTAATCTTTCTGTTCAAGCGCCATCTAC” was 1.05 RPM ratio (pull-down/input).
Regarding “GATGATTGTTCTCCCAGCTGATGAATTTATGGCTTCGAGTAAACAAATTTTCCTAATCTTTCTGTTCAAGCGCCATCTAC”, the binding signal is 1.12 RPM ratio (pull-down/input).
The value for “GATGATTGTTCTCCCAGCTGATGAATTGTGCTTATCGAGTAAACAAATTTTCCTAATCTTTCTGTTCAAGCGCCATCTAC” was 1.66 RPM ratio (pull-down/input); that for “GATGATTGTTCTCCCAGCTGATGAATTGACTTATTCGAGTAAACAAATTTTCCTAATCTTTCTGTTCAAGCGCCATCTAC” was 1.09 RPM ratio (pull-down/input); that for “GATGATTGTTCTCCCAGCTGATGAATTTCGCGCCTCGAGTAAACAAATTTTCCTAATCTTTCTGTTCAAGCGCCATCTAC” was 0.95 RPM ratio (pull-down/input).
The value for “GATGATTGTTCTCCCAGCTGATGAATTAGAGGCATCGAGTAAACAAATTTTCCTAATCTTTCTGTTCAAGCGCCATCTAC” was 1.15 RPM ratio (pull-down/input); that for “GATGATTGTTCTCCCAGCTGATGAATTTCAGGCGTCGAGTAAACAAATTTTCCTAATCTTTCTGTTCAAGCGCCATCTAC” was 0.868 RPM ratio (pull-down/input).
